# Results from the supplement of paper PMC3334620.
# In all, about 33,000 sequences were measured (“E-score (-0.5 to 0.5)”: median about -0.012, highest 2% from about 0.29 on). This is one part of the list.
# Biological target: T1, Ybr033w (UniProt P38073)
# T1 sequence: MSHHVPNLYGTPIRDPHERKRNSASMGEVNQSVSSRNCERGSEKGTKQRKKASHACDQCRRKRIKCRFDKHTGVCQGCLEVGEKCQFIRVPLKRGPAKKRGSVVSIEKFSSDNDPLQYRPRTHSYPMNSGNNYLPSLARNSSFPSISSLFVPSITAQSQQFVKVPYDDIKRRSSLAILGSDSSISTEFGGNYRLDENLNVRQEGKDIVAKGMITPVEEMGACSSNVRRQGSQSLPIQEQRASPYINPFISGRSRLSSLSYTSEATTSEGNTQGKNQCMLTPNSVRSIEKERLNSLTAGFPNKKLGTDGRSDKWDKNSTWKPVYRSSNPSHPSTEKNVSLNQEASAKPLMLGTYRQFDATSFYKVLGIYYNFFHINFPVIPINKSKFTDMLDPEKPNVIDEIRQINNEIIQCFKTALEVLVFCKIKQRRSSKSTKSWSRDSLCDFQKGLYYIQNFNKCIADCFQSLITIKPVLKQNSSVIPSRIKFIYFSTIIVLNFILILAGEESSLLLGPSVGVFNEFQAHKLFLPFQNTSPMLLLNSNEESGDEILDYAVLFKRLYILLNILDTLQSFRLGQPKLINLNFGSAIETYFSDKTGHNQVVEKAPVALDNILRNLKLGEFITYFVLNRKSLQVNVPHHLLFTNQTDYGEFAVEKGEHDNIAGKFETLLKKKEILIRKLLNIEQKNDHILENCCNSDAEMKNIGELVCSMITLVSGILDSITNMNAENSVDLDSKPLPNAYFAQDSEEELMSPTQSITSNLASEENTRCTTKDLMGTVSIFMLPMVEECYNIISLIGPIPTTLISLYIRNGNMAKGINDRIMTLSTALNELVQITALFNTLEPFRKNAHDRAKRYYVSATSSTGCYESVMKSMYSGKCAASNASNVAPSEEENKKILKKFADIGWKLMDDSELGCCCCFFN
# Assay: PBM E-score (8-mer binding enrichment) (E-score (-0.5 to 0.5)); higher = stronger / more preferred TF binding; most listed sequences are background and not binding sites
# Conditions: protein concentration: 200 nM; construct: GST-full length
# Protocol: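 Universal 'all 10-mer' protein binding microarrays (Agilent AMADID 015681) probed with GST-tagged S. cerevisiae TFs (full-length or DBD) made by in vitro transcription/translation (PURExpress), about 100-200 nM. Bound TF was detected with fluorescent anti-GST. Each ungapped 8-mer (which stands for itself and its reverse complement) is scored by the PBM enrichment score (E-score), a modified Wilcoxon-Mann-Whitney statistic from -0.5 to +0.5, computed with the Universal PBM Analysis Suite. Scale: above 0.35 generally sequence-specific binding.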
row,Sequence,PBM E-score
1,ACAGCTTA,0.0322
2,ACTATACA,0.164
3,TAATATGA,0.284
4,CGAGGGTA,-0.0645
5,AGTAGTTA,0.0431
6,GTAAAACA,0.0774
7,CTCGAGAA,-0.0495
8,ATGCTAGG,-0.128
9,CGCTATGA,0.0424
10,AGTCGGAT,0.173
11,CGGCATCA,-0.0412
12,GCTGGTAA,0.0232
13,CAATGAGC,-0.0648
14,AAGTCATT,0.0867
15,AGAGGTAG,-0.0839
16,TATAAAAA,0.253
17,ACCGCTAC,-0.0889
18,AGTCGCCC,-0.181
19,CGAGCCCA,-0.0979
20,CGGCGTCC,0.0115
21,AAACTCAT,0.274
22,AGCCACAC,-0.0814
23,CTGATACA,0.0296
24,CGACTACG,-0.119
25,CGCAGATC,-0.207

row,Sequence,PBM E-score
1,CGAGTCAA,-0.0691
2,TAAACTCA,0.147
3,CGGCGCCG,-0.101
4,AAGCCTAA,0.0278
5,ATGCATGA,0.149
6,CTAGACTC,-0.308
7,CAATTGTG,0.0486
8,AAGTCTCC,-0.0449
9,CATGAGCA,-0.0438
10,ATACCGTC,0.0674
11,CGAAACAG,0.0722
12,TGCGTGAA,0.0985
13,AAGGGGTA,-0.299
14,AACACCGA,-0.00424
15,GCTACCAC,-0.0343
16,CAGCTGTC,0.0183
17,AGGTGCAT,-0.0746
18,AGACATGC,-0.0452
19,AACTCTCC,-0.172
20,AGACCGTG,-0.111
21,ACGTGAGC,-0.222
22,AATCTACT,0.166
23,GCATCGAA,-0.077
24,GCATCACA,0.215
25,GTCTTGCA,0.0132

row,Sequence,PBM E-score
1,AGCTCGCC,-0.197
2,ATTCGTGG,0.0347
3,CTGCGGGA,-0.179
4,GCCTACAC,-0.134
5,GTCTGACA,0.00461
6,ACGCGTCA,0.0112
7,GAATCCGC,-0.13
8,ACCCAGGG,-0.287
9,TAACATCA,0.22
10,CCGACCGC,-0.197
11,TAGGACGA,-0.0514
12,ATCTCCGA,0.0131
13,CGCACAAC,-0.145
14,TCTTCACA,0.103
15,ACTGAGTC,-0.0352
16,GTGATATA,0.0803
17,CACCTAGC,-0.236
18,ATGAAGCC,0.199
19,AGGAATTG,0.0984
20,GGCCGCGA,-0.247
21,CAGCTGAA,-0.14
22,CCGAGTAG,0.157
23,ATCCCGGG,0.0706
24,GATGCTGA,-0.17
25,ACGGAAAG,0.0247

row,Sequence,PBM E-score
1,GACGCTAC,0.131
2,ACTAACCT,0.0958
3,TGTCACAA,0.213
4,CTATACCC,-0.0499
5,CTTACCAA,0.239
6,GCCTGTCC,-0.193
7,CCAACACG,0.0872
8,GTACCGCA,-0.0826
9,AATGAATA,0.194
10,CGGACGAG,-0.105
11,GGCCCCCA,-0.361
12,ACGACCCC,-0.354
13,CTACTAGC,0.189
14,CAGATGAC,-0.202
15,AACGGCAT,0.193
16,ACAACAGT,0.0383
17,ACTCAAAC,0.152
18,AACAATTG,0.115
19,GGGGGGTA,-0.408
20,GACTTACC,-0.123
21,CTCAGCGC,-0.114
22,GATCAACA,0.237
23,CGTGAGAC,-0.106
24,CACGAGCA,-0.151
25,AAACCTGG,0.0176

row,Sequence,PBM E-score
1,ATCCGCGC,-0.0147
2,TCCGCAGA,-0.0907
3,AATCTCGG,-0.00202
4,GGGCGCGA,0.0038
5,CTCCAAGC,-0.153
6,AGAGGAAG,-0.00302
7,CATACATG,0.147
8,ACTCGCAA,-0.0107
9,ATGTTACG,-0.00837
10,CAGCCTCC,-0.313
11,CCCGCGGC,-0.0958
12,AAATCACG,0.222
13,CCCTCAGC,-0.263
14,AGCCCCGG,-0.0989
15,GGCCTCAA,-0.0245
16,ACGCCCGG,-0.282
17,GGGTTTTA,-0.0797
18,CTTTACTC,0.116
19,CGGGGCTA,-0.19
20,AAGTCTTG,-0.0842
21,AGTACCCA,0.0112
22,TCCTTAAA,0.1
23,CTGCTCCC,-0.25
24,ATAAAGTA,0.306
25,AAAAGCTA,0.141

row,Sequence,PBM E-score
1,CACCCTCA,-0.207
2,ACCAGGCG,-0.125
3,GAAGTCTA,-0.0771
4,ATGCAAGA,0.149
5,AGGATAAT,0.36
6,AACATCTT,0.0167
7,AGCATCGA,-0.0226
8,TGTGCGAA,-0.002
9,AAAACATT,0.202
10,CCATTAAG,-0.00675
11,GCAATGAC,-0.0882
12,TCCCACAA,-0.0618
13,CGGTAGTC,-0.0775
14,TAATAAGA,0.184
15,CTTATTCA,-0.0207
16,ATTAAAAT,0.276
17,ATCCCTGG,-0.0953
18,CGGGACTC,-0.358
19,GACGTGGC,-0.236
20,CGGAGTAA,0.152
21,AATAACTA,0.227
22,CGTCGAGA,0.0264
23,AGAAATAT,0.299
24,GACCTCTA,-0.147
25,CAAGTAGG,-0.0999

row,Sequence,PBM E-score
1,AAACACGC,0.105
2,GTCATAAA,0.133
3,ACGTCGCG,-0.0367
4,GACGATCA,-0.121
5,AACATCGC,0.0172
6,GCTTTGGA,0.0527
7,AATTGGAT,0.209
8,CAACTCCA,0.016
9,CCTAGGAA,0.233
10,ATAAAGTG,0.244
11,CTGAAGCC,-0.102
12,AATGGAAT,0.221
13,CCTTTACG,0.0586
14,GATGTCTA,0.0177
15,CAGTACGC,-0.0269
16,CTGACTCA,-0.0835
17,ATAGTTTC,0.158
18,ACTAGATA,0.304
19,CAATGTGG,0.00156
20,ATTTTGTC,0.187
21,GGCGAGAC,-0.183
22,AAGTTATT,0.3
23,CAGTCGAA,-0.0676
24,GATCTGAA,0.00071
25,GGCCATCA,-0.0151

row,Sequence,PBM E-score
1,ACCTTCAT,-0.0827
2,ACGCTAAA,0.0831
3,AATACTCC,0.0328
4,CAGTGCCC,-0.144
5,CTTATCCC,-0.16
6,GAACTAAC,0.00327
7,CGTCGGGC,-0.336
8,CGATAACC,0.0582
9,GCCTCTAA,-0.0298
10,CCTTTCCA,-0.125
11,ATCCATCA,0.0199
12,GGTCAGAC,-0.277
13,CTGCCCGC,-0.153
14,GACCTTTA,0.08
15,GCACGGGA,-0.15
16,GAAGCGTA,-0.0763
17,CGGTTATA,-0.092
18,AACTGGAT,0.237
19,AATCTATC,0.137
20,ACTGAGGC,-0.0826
21,AAGAGGAT,0.00953
22,ACAAGATC,-0.0214
23,CTATGCAG,-0.066
24,AAAATTGT,0.261
25,AGTCATTC,0.0855

row,Sequence,PBM E-score
1,ATGCGACG,0.119
2,AGGAACAC,0.193
3,CTTACGAA,0.0413
4,TACTGGCA,-0.0764
5,GAGGGCAA,-0.0744
6,AACCTACA,0.185
7,TACTCGGA,0.176
8,CACCTAGA,-0.0844
9,ATTCATCA,0.171
10,ACAGCCAG,0.0325
11,CGATGGAA,-0.00848
12,AACACTGG,-0.072
13,ACTCTTCC,-0.0223
14,CGGAAGGC,-0.179
15,ACGCGGCC,-0.213
16,GAGTAGAA,0.0517
17,GAAGACCA,-0.012
18,ATAAGAGC,0.139
19,AGGTAGTA,0.149
